# Reference: the supplement of paper PMC3334620
# The full ranking holds about 33,000 sequences; the median of “E-score (-0.5 to 0.5)” is about -0.016, and the highest 2% start at about 0.31. Some of the results follow.
# Molecular target: Cst6 (UniProt P40535)
# Assay: PBM E-score (8-mer binding enrichment) (E-score (-0.5 to 0.5)); higher = stronger / more preferred TF binding; most listed sequences are background and not binding sites
# Conditions: protein concentration: 200 nM; construct: GST-DNA-binding domain
# In short: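 Bound GST-tagged yeast transcription factors, applied at about 100-200 nM to double-stranded universal all-10-mer Agilent arrays, were detected with fluorescent anti-GST. Scans were normalised with masliner. A modified Wilcoxon-Mann-Whitney statistic, the E-score, was assigned to each ungapped eight-base word pooled with its reverse complement by the Universal PBM Analysis Suite.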
row,Sequence,PBM E-score
1,ATCGCCAG,-0.0857
2,AAGCGTAG,-0.223
3,AATGAGAT,0.231
4,CCAAAGAC,-0.095
5,TAAGTCCA,-0.0847
6,ACACAAGT,-0.0442
7,ATTCTCTA,0.155
8,CCAGATGC,-0.189
9,GACGCCCC,-0.00249
10,ATATCAGA,0.179
11,TCCTCCGA,-0.395
12,GTAGATAA,0.218
13,CGTGTTTC,0.00951
14,TCGCCGAA,0.185
15,CTTAAGTA,0.0395
16,CCAATTCA,0.126
17,GGTAAATA,0.0885
18,ACGGAGGG,-0.145
19,CCTGTACA,-0.0547
20,AGTTACCA,-0.0424
21,AGCATGGC,-0.136
22,CATGTGCA,-0.0964
23,CGCAAGAC,-0.142
24,GCGGGATA,-0.0401
25,AGGAGACG,-0.174

row,Sequence,PBM E-score
1,CCACACAG,-0.0337
2,ATACATAA,0.258
3,GCCATATA,0.123
4,AGCGATCC,-0.0782
5,AGCTCCCT,-0.282
6,GCTCTGGA,-0.107
7,CAGGCATG,-0.00473
8,AACGATGT,0.102
9,CAGCGACG,-0.06
10,GCTAGACC,-0.299
11,CATAGAAA,0.22
12,GTTACGTA,0.46
13,ATGCAGGA,-0.153
14,CAATTAGA,0.0829
15,CACGTGAC,0.148
16,CCATCGGC,-0.2
17,CTCTTCAC,-0.089
18,AATAATCA,0.209
19,GCTTTTGA,-0.129
20,CATCATGG,0.249
21,AGCTCCAG,-0.228
22,CCGCGATA,-0.0512
23,CATTTTAA,0.208
24,GCACGAGA,0.0175
25,GCCGGTTA,-0.166

row,Sequence,PBM E-score
1,AGAGCACA,-0.11
2,TACGACCA,-0.021
3,ACCTATAT,0.273
4,AATCGCTC,-0.266
5,CCGGTAGA,-0.132
6,AAGTTATG,0.248
7,ATCTACGA,-0.0544
8,GAAGTATC,0.105
9,ACTGGGAA,0.0525
10,ACGTGAGT,0.0508
11,CAACCAGG,-0.162
12,AAGCTATG,-0.0495
13,TCGCTCCA,-0.06
14,GCACAACA,-0.00119
15,ACCACTGC,-0.139
16,AGGACGCA,-0.209
17,CCCCGCGG,-0.0982
18,GGTCGCTA,-0.222
19,GGTTTATA,0.0508
20,GATCGTCA,0.294
21,AAGAGCAG,-0.124
22,ACTCGGAT,0.038
23,AGCCCGAA,-0.192
24,CAAGTCGA,-0.165
25,CGCACGAA,0.0947

row,Sequence,PBM E-score
1,GACTTCAA,-0.106
2,CCGGTGTC,-0.213
3,ACAGCGTG,0.0197
4,ACTTGGTG,-0.158
5,AGAGAACT,-0.0611
6,GCGGGGCA,-0.174
7,CAGCTTTC,-0.0784
8,AACAGAAG,0.101
9,ACTCAGTA,0.0552
10,GACTCAGC,-0.202
11,CCACAAGC,-0.236
12,CAACGCCG,0.191
13,CCGTGTAA,0.0882
14,CTACTCAA,0.182
15,AAGGCACC,0.116
16,ACGTGTCA,0.2
17,GCGGTGAC,0.345
18,TAAGGCCA,-0.146
19,CTACGCGC,-0.0816
20,GCGATTGA,-0.00765
21,ACAGTTCT,-0.0938
22,CGAGCAAG,-0.193
23,TCTGCGAA,-0.107
24,ACAAAACC,0.17
25,GACAGATC,0.00799

row,Sequence,PBM E-score
1,AACTCCCT,-0.053
2,CATTTATC,0.151
3,ACCTCGGG,-0.254
4,GAGGGTAA,0.0269
5,ACTCAATG,0.17
6,GTTTTATA,0.122
7,ACGATTCT,0.039
8,ACTCCGAG,-0.0087
9,GCATCTAC,0.0667
10,CTGCTCTC,-0.151
11,GACGACCC,-0.208
12,CGCCGTAC,0.278
13,GACCCAAC,-0.119
14,CCAAGGCA,0.031
15,ACCGTGTC,-0.0674
16,ACACTTCC,0.0379
17,AATGTCGC,0.0324
18,GGGTCGAC,-0.322
19,CTCCGGCA,0.0582
20,CAGCGTAC,-0.113
21,CTCCTTTC,-0.0597
22,AAGCTTTA,-0.0344
23,ACTGTAGA,0.101
24,CGGGGTAC,-0.31
25,CAGGTCGC,-0.22

row,Sequence,PBM E-score
1,TCAAATAA,0.238
2,ATTTCTCA,0.0463
3,ATGGGTTC,-0.254
4,AGGGTATA,-0.0418
5,ATGTGATC,0.139
6,CGTATAAA,0.211
7,GCCTATCA,0.0365
8,ATATAGGA,0.045
9,GGTCGCAA,-0.0741
10,ATCACTTG,0.0983
11,GCGGGGGA,-0.355
12,CCATCACC,0.15
13,AAATCCTG,0.0199
14,CACCGTAC,-0.112
15,CATGCTTA,0.078
16,TCTAATCA,0.174
17,GGATTTTA,0.0738
18,CTACGTAG,0.137
19,AAGCGTCT,-0.28
20,AGGCCTTA,-0.116
21,TATTATCA,0.249
22,CAATGACG,0.469
23,ATGTAAGC,0.143
24,CCTAAAGA,-0.0364
25,GTAATCGA,0.268

row,Sequence,PBM E-score
1,AGTGGCTA,-0.0472
2,ACGAACAC,0.138
3,TGGAAACA,-0.0385
4,GAGATTCA,-0.123
5,CCCTTGAC,-0.0184
6,CAACTATG,0.0897
7,CGATTTCA,0.0133
8,CAGGACTA,-0.267
9,CTCGTTTA,0.109
10,CGTTTCCA,0.134
11,AAGATCTT,0.112
12,CTTTTTAA,0.161
13,CGGCGTCA,0.34
14,CTCTGCAG,-0.24
15,ACAAGCGG,0.0213
16,AATAGACC,0.00116
17,ACCGTAAT,0.167
18,GATGTCAC,0.448
19,ATGAGAAC,0.0633
20,ATCATGAC,0.446
21,ACTATCAA,0.06
22,CCAGCCGA,-0.257
23,CGGAACTC,-0.255
24,GTAGGAGA,-0.187
25,AAAGACAG,0.131

row,Sequence,PBM E-score
1,CCCAGTAG,-0.159
2,GGCATAAA,0.204
3,GACCTGAC,-0.0408
4,ACAGTGAA,0.146
5,AGAGGGCG,-0.0402
6,GAGGCCCA,-0.276
7,AGCCCCTA,-0.372
8,AATGTACC,-0.0127
9,TGAACTAA,0.128
10,CTCGAGAG,-0.134
11,GGATAACC,-0.276
12,AAGTTATC,0.124
13,CCTACTCA,-0.0162
14,CGTTTCCC,-0.06
15,CTCCGTAA,-0.0462
16,CGCGACAG,-0.227
17,CGCACAGA,-0.018
18,CCCATCTC,-0.148
19,AAGCGGAG,-0.214
20,ACACGTTG,-0.099
21,AGAAACGA,0.05
22,ATGCCCCG,-0.104
23,ACATCCCC,-0.119
24,CCCCCAAA,-0.178
25,TACCGCAA,0.115

row,Sequence,PBM E-score
1,CCTCTGAG,-0.254
2,ACGGTGAG,-0.0622
3,CATCCTGA,0.0896
4,CCATGGTA,-0.153
5,GAGATCGC,-0.11
6,AGTAGACC,-0.079
7,CACCCCTA,-0.0641
8,CTGCCTGC,-0.232
9,CGGACCTC,-0.152
10,GCTATAGA,0.0161
11,CCGGAGTC,-0.129
12,AGTTTAAC,-0.0744
13,GATGCGGC,0.237
14,CGAGACTA,0.0119
15,CGCTTGGC,-0.109
16,GCAGGGGA,-0.374
17,AGCCTGGC,-0.298
18,CGGAACGC,-0.103
19,GTAGCCCA,-0.0774
20,GCTAAGAC,-0.0875
21,CTGTATCC,-0.0941
22,CAAGCTCG,-0.253
23,ATAAACGC,0.0481
24,CCGTTGGC,-0.0595
25,ATACCCTA,-0.107

row,Sequence,PBM E-score
1,AATCTCTA,0.146
2,CGTTGCAA,0.00332
3,CACCGCCG,-0.0696
4,CAATATGA,0.245
5,TACGGCTA,0.0905
6,ATCGGTTC,-0.0289
7,AGCCTTCC,-0.243
8,CAGATGAG,0.0374
9,CTCATGTC,0.0261
10,GCAGGTGA,0.109
11,AACGGCTT,0.0157
12,AGCCATGG,-0.0543
13,TAAACCGA,-0.0476
14,AGGGCCAT,-0.123
15,GTTCGTCA,0.269
16,AGCCCTGC,-0.0836
17,CGTGGGGA,-0.164
18,CTAGGGCC,-0.206
19,CCGATCAC,0.0824
20,ACCGGGAA,0.0359
21,GGGAGTAA,-0.0415
22,AGGGGTAC,-0.273
23,CTATTCAA,0.197
24,GTGACACA,0.322
25,AGCTTGGC,-0.251

row,Sequence,PBM E-score
1,ACTCATTG,-0.129
2,AGCACGCG,0.0232
3,AGTAGATG,0.147
4,CAGGCCAC,-0.174
5,AGCTCCGA,-0.145
6,CCGCTAAG,-0.0767
7,CGGGCCCG,-0.0625
8,CAGACGCG,-0.17
9,GCCTTTGA,-0.0769
10,GTAGTTAA,0.129
11,ACTTAGGA,-0.161
12,AGAGCTGG,-0.185
13,GGGGCCAA,-0.319
14,GACTGTAA,0.0809
15,GGAGCCCA,-0.289
16,ACCCAACC,-0.128
17,TCGGCAGA,-0.0704
18,AAGAACTT,0.064
19,AGGTGCCA,-0.098
20,CTTGATGC,-0.0156
21,AGATGGAG,-0.221
22,ATAATGAT,0.334
23,GAAAAAAC,0.193
24,CTTTCTCA,0.21
25,ATACCACA,0.0944

row,Sequence,PBM E-score
1,ATACGGTA,0.208
2,GCGGTAGC,-0.202
3,CACCTGGC,-0.159
4,GAGTAGGC,-0.017
5,CTTCGTTC,-0.0417
6,CGAGACCC,-0.107
7,CGTGTTCC,-0.103
8,GCGTCTCC,-0.0657
9,GAGACGAA,-0.099
10,AGGGGGAC,-0.401
11,ACCGCTTC,-0.29
12,CCAGGTGA,-0.0641
13,GTATCTTA,0.212
14,CCAAATAA,0.281
15,ATGGTATG,-0.199
16,AAATCAAG,0.205
17,ACATGACA,0.274
18,ACCTAACC,0.103
19,CCAATCTC,0.05
20,GGGCATGA,-0.111
21,ACGAGGCT,0.227
22,CTAATGGA,-0.085
23,CTATATTC,0.0369
24,CCCCGATC,-0.4
25,TAGGGGGA,-0.357

row,Sequence,PBM E-score
1,AACTGGTA,-0.168
2,TTTCAAAA,0.238
3,TCAGCAGA,-0.0233
4,AGTACACT,-0.0224
5,GTTCCGAA,0.143
6,AACGAGGT,0.0136
7,GTGTTTTA,0.104
8,CCTCCGGA,-0.277
9,CCGAGCAG,-0.12
10,AACACCAG,-0.11
11,ATTAACCA,-0.00714
12,ATCATCAA,0.326
13,ATTCTCTC,0.0266
14,TCGATGAA,0.106
15,TAACTGCA,0.00908
16,CTACAATA,0.125
17,CGCTCGTA,-0.0604
18,AAGTGAGA,0.00703
19,GCTACAAC,-0.201
20,TAGCGGGA,-0.199
21,TAAGTGGA,0.104
22,AGTCGCTG,-0.122
23,ATTCAACC,-0.0419
24,ACAGTAAG,0.0939
25,ATCTCCAA,-0.0789

row,Sequence,PBM E-score
1,CCGGAAGC,-0.162
2,CGGTCTCA,-0.233
3,GTCCCTCA,-0.111
4,AGTTAAAT,0.178
5,GTCAAGCA,-0.29
6,TAGAGCAA,-0.089
7,ATTCGAAG,-0.0186
8,AGCTAAAA,0.0957
9,ATGGCATG,0.192
10,CATTTTAG,0.236
11,CGCTCCAC,-0.209
12,ACAGCCTC,-0.201
13,TCTTTACA,0.181
14,CCCTTCAC,-0.204
15,GGTTCGTA,0.121
16,GCACCATA,-0.0457
17,CTGCCGTA,0.0163
18,CTTTTGTC,0.0876
19,TATCACAA,0.217
